These are yes or no findings as the source states them, for the method shown. In cells and extracts the contact can be indirect. Some results given as binding are weak or reduced against the parent protein; the word gives no strength. Where a sequence is shown, tags or fusion partners need not be part of it.

Binding data for nine molecules are collected here from PMC7776573.

The target of assay [1] is T1, GST-EVH1 (Falafel Flfl^1-168aa, containing the EVH1 domain) (Drosophila melanogaster) (UniProt Q9VFS5).
T1 sequence: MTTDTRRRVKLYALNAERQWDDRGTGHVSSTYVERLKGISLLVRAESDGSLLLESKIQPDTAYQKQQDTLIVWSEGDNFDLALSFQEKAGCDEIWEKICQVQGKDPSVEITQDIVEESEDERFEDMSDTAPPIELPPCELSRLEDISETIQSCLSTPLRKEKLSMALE
The experiment in a line: pull-down; GST or GST-fused bait immobilised on glutathione sepharose 4B; 35S-methionine-labelled IVTT prey; 90 min at 4°C in WB1 (50 mM HEPES pH 7.5, 150 mM NaCl, 2 mM MgCl2, 1 mM EGTA, 1 mM DTT, 0.1% Triton X-100) with protease inhibitors and 0.5 mg/ml BSA; SDS-PAGE and autoradiography; only the target purified.

In assay [2] the target is T2, GST-Smk-1 (Falafel Flfl^169-361aa, containing the Smk-1 domain) (Drosophila melanogaster) (UniProt Q9VFS5).
T2 sequence: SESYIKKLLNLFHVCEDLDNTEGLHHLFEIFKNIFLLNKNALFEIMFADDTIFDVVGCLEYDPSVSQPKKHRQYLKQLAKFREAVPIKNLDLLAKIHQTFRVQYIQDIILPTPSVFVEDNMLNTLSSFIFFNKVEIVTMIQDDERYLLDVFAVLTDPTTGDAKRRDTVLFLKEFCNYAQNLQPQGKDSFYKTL
Described as above.

B1: Psc fragment aa 786-876 (domain or fragment, UniProt P35820 786-876)
chain: TVDFKIRLPVTNGNSSGTASPKIEKPLMPPPAKPPMLAPRKLQPSAQFAPPPSPIHHHAGVQMSAPGNRTPIAKRYQPILPKASRPNPFAN
modifications: 35S-methionine label
Turning to B1, in assay [1], the binding result was “binds”.

B2: Spindle A (protein, UniProt Q27297 1-336)
chain: MEKLTNVQAQQEEEEEEGPLSVTKLIGGSITAKDIKLLQQASLHTVESVANATKKQLMAIPGLGGGKVEQIITEANKLVPLGFLSARTFYQMRADVVQLSTGSKELDKLLGGGIETGSITEIFGEFRCGKTQLCHTLAVTCQLPISQKGGEGKCMYIDTENTFRPERLAAIAQRYKLNESEVLDNVAFTRAHNSDQQTKLIQMAAGMLFESRYALLIVDSAMALYRSDYIGRGELAARQNHLGLFLRMLQRLADEFGVAVVITNQVTASLDGAPGMFDAKKPIGGHIMAHSSTTRLYLRKGKGETRICKIYDSPCLPESEAMFAILPDGIGDARES
modifications: 35S-methionine label
On to B2, for which the binding result in assay [1] is on record as “no binding”; in assay [2], “binds”.

B3: γ-Tub23C (protein, UniProt P23257 1-475)
chain: MPSEIITLQLGQCGNQIGFEFWKRLCLEHGISPSGVLEDFANDGLDRKDVFFYQADDDHYIPRAVLLDLEPRVINTIMGSVYSKLYNPENVYLSKHGGGAGNNWASGYSQGEKLQEEVFDIIDREADGSDSLEGFILCHSIAGGTGSGMGSFIMERLADRYPKKLIQTFSVFPNQDEISDVVVQPYNSMLTLKRLTTAADSVVVLDNTALNRIACDRLHIQNPSFSQINNLVSTIMSVSTTTLRYPSYMNNNLIGLTAPLIPTPQLHFLMTGYTPLTSDSDIHTQQLVNVRKTTVLDVMRRLLQPKNMMVSTGPDKSNHHCYISILNIIQGEVDPTQVHKSLQRIRDRKMAQFIPWGPTSIQVALSRSSPYVQSNHRVSGLMLANHTSICSLFERALNQYDKLRKRGAFLDQFRREDIFKDDLNELDESRETVDCLVQEYEAATREDYMQFSVKRGNGPVDSKSEDSRSVTSAGS
modifications: 35S-methionine label
Consider B3, for which the binding result is “no binding” in assay [1] and “binds” in assay [2].

B4: Zwilch (protein, UniProt Q9VA00 1-641)
chain: MSASANLANVYAELMRRCGESYTITYGAPPTYLVSMVGAAEAGKKIVLVFKEDRNGAVARLRTTPTRAAPKKEGSADLDLTGSPLKDDCLVDAIADLSIDLQLDHSNPWKLEEEYQRGIPVDKARSIVCSEFLQLAEGLGSVWFLCDGSDLGQTQLLQYEFNPTHFSRGILSYQGVRPAYLVTSQALVRHHGKTPDETLIENSYQVNPHMRLRCSWTSSAALPLLVNLNDCDVALNHTFRVGDCGPLTQDFMNQLRILVYIREDIVSYHTDVKQGVSRDPTYRCGSGIDMDELRESINQTMTDVSGLIGRYSISNAEFDIEDVVQRAKVRQLTDLTDKLWELLKCCHSYKDLKIAFSMLFQCAARCNIVNTPTNKNRLAKIITELANRRLAMPCLSGAEPLELLLEIGLEKLYKDYEFIYTESKMCSTNLLKDDSSGASMDDGSPQNLPQLRKSLHNAVRGDPTPGAGMRKTLLHHHGAVNSRSTKYAGSDDDAGFKNSHFDEHESTERISKLFQIHCTLEHLLMMHIHLNLANVYNDVCSELLKKPPKLVESIDDQLSDVMDIRLSAHYVRDHLDGKDPYSRHITMRSHNKFRELKTTFYFNSENICPPNLAQCFQCDDKEMVKERTYHSWIYHKIRSLK
modifications: 35S-methionine label
For B4, the binding result is listed as “no binding” in assay [1] and “binds weakly” in assay [2].

B5: barrier-to-autointegration factor (BAF) (protein, UniProt Q9VLU0 1-90)
chain: MSGTSQKHRNFVAEPMGNKSVTELAGIGETLGGRLKDAGFDMAYTVLGQYLVLKKDEELFKDWMKEVCHASSKQASDCYNCLNDWCEEFL
modifications: 35S-methionine label
Regarding B5, the binding entry in assay [1] and in assay [2] was “no binding” throughout.

B6: Psc fragment aa 721-810 (domain or fragment, UniProt P35820 721-810)
chain: RAITPPSPSVQQSASPKSKGNNLDDSILMKPPSCMPPKSIASSKRKSKEPVKAVSKKQKLSPPLPTVDFKIRLPVTNGNSSGTASPKIEK
modifications: 35S-methionine label
For the molecule B6, the binding entry in assay [1] is reported as “binds”.

B7: Nipsnap (protein, UniProt Q9VXK0 1-273)
chain: MLKLRNLLAVGKSNNNAVRSLSTTPSRNDSESWFSKLLVRKIEPTKESHSRMLSDKEIIYALHTHNVRPDSMGSYLNNYKTTVALINEKKANLSCELVASWTVQVGDMDQCLHLWKYTGGFEKIDQAKEDLWNDPEYLSLMQERSKFLRSRHLQYLLAFSYWPQIASRTGKNIYEMRSYRLTPGTMIEWGNNWARAINYRKHNNEAFAGFFSQIGRLYNVHHIWCYKSLQDRKETREAAWRSPGWDECVAYTVPLIREMHCRVLAPTEFSPSQ
modifications: 35S-methionine label
Consider B7, for which the binding result in assay [1] is given as “no binding”; in assay [2], “binds”.

B8: Grip75 (protein, UniProt Q9VKU7 1-650)
chain: MIHDLLLACRSHNPEQLGIKAFNETTVIDQFIHPCEREIFMDIIKIIKVYQEVEQFTHSSGRKSDTHGELPDSLHGYYLLNLAKGIEMALEEYYAEIGRLEKYCLGNERNSLSYVYNALYAKFPLLVFMRNLITEIHVLNLRGCVLLHNLHQQCEHGDIQLEKAIKIIMKPVKNAFFSSLAHWLLFGVIDDVHSEFFIKFTPTDAVDGSSFSKSATCSLLSAEKNPEDYIWQYEVNMSQLPGFFSIVLAEKVLFVGQTVLVFKMGRNVKVKNKTDPLAAKLAELDSDDIYQLWSGRESEFFKMVVDLSNEDTINVFRLEKVIIDIKNYVSARLSEIAVNEVDLERQMGLIKDFFLLGRGEFYLEFCSQMVGTMETYREERFKNVTRSFELAATVTGITDDLDKFSLICQRSTSEPDDTSDFNFLQGLSLKYEYEWPLNLLFSPTTIERYNNIFRFLLIIRTYQYEIQRVWAKQTWRAKSAKDVPPNNKIITLRNYLMFFLNNMQYYIQVDVLESQFGILMNVIKSRSDFEVIQRAHTVFLANVLSHCFLLNESETQLNVTGSQNRNPIYGTLLKLFGICEKFAHMTQTKDPSDDLEDEVDQLNESFGVQIASLIQLLVDVKSASCLGPLSQLLLRLDFNCWFSASHNTSA
modifications: 35S-methionine label
B8: the binding entry in assay [1] is reported as “no binding”; in assay [2] it was “binds”.

B9: Zw10 (protein, UniProt Q9W4X9 1-721)
chain: MEEEAPRFNVLEEAFNGNGNGCANVEATQSAILKVLTRVNRFQMRVRKHIEDNYTEFLPNNTSPDIFLEESGSLNREIHDMLENLGSEGLDALDEANVKMAGNGRQLREILLGLGVSEHVLRIDELFQCVEEAKATKDYLVLLDLVGRLRAFIYGDDSVDGDAQVATPEVRRIFKALECYETIKVKYHVQAYMLQQSLQERFDRLVQLQCKSFPTSRCVTLQVSRDQTQLQDIVQALFQEPYNPARLCEFLLDNCIEPVIMRPVMADYSEEADGGTYVRLSLSYATKEPSSAHVRPNYKQVLENLRLLLHTLAGINCSVSRDQHVFGIIGDHVKDKMLKLLVDECLIPAVPESTEEYQTSTLCEDVAQLEQLLVDSFIINPEQDRALGQFVEKYETYYRNRMYRRVLETAREIIQRDLQDMVLVAPNNHSAEVANDPFLFPRCMISKSAQDFVKLMDRILRQPTDKLGDQEADPIAGVISIMLHTYINEVPKVHRKLLESIPQQAVLFHNNCMFFTHWVAQHANKGIESLAALAKTLQATGQQHFRVQVDYQSSILMGIMQEFEFESTHTLGSGPLKLVRQCLRQLELLKNVWANVLPETVYNATFCELINTFVAELIRRVFTLRDISAQMACELSDLIDVVLQRAPTLFREPNEVVQVLSWLKLQQLKAMLNASLMEITELWGDGVGPLTASYKSDEIKHLIRALFQDTDWRAKAITQIV
modifications: 35S-methionine label
Turning to B9, the binding entry in assay [1] is recorded as “no binding”; in assay [2], “binds weakly”.
